This note sets out measurements from PubChem BioAssay AID1963576 (National Center for Advancing Translational Sciences (NCATS), 2024).

About 60 (0.1%) of roughly 46,000 compounds were called active. About 3% were inconclusive and are not listed. Calls come from the whole dose curve; as a rule, active = well fitted inhibition curve with a large enough effect; inconclusive = small, poorly fitted or top-dose-only effect; inactive = no such curve, though single readings can be large or run the other way. The list shows a part of the results.

The nature of the test: Primary qHTS assay for Inhibitors of ovarian cancer metastasis using an organotypic tumor microenvironment (TME) model.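 For activity change, negative = inhibition: plate controls were DMSO wells for no effect and tomatine positive control wells for full effect.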 Note: nearly all actives have a fitted effect of over 65% in size. As to conditions: SKOV3ip1-GFP adhesion/invasion on 3D omental model, fluorescence; series mostly up to 45.8 µM; activity change, negative = inhibition: at the top concentration. The essentials: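 Primary human omental fibroblast/mesothelial 3D culture pre-formed 48 h. SKOV3ip1-GFP cells added with compounds (0.36-46 umol/L), incubated 2 h RT/16 h 37 C, fixed; GFP cells quantified at 488/509 nm.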
(Quantitative high-throughput screening tests each substance at several concentrations.)
In the case of `CCCOc1ccc(C(=O)Nc2ccc3oc(-c4cccc(Cl)c4Cl)nc3c2)cc1`, the call was inactive.
`Cc1ccc(-c2nn3c(=O)cc(CN4CCN(C(=O)/C=C/c5ccccc5)CC4)nc3s2)cc1`: the “activity change, negative = inhibition” value is inactive: -4.98%.
For the molecule `CCOC(=O)c1ccc(NC(=O)C(Cc2ccccc2)N2Cc3ccccc3C2=O)cc1` (stereo not drawn), the “activity change, negative = inhibition” value is inactive: -3.08%.
On the same count and under the same terms, the same measure for `CCn1c(=O)c2sccc2n2c(CCCC(=O)N3CCN(c4cccc(Cl)c4)CC3)nnc12`: inactive: -3.15%.
For `CCOc1ccccc1C(=O)N(Cc1cc(OC)c(OC)c(OC)c1)c1ccccn1`, the “activity change, negative = inhibition” value was inactive: 0.527%.
Same read-out and setting: the value for `CCCn1c(SCc2nc(-c3ccccc3OCC)no2)nnc1-c1ccc(Cl)cc1` was inactive: -3.18%; that for `N#Cc1nc(COc2cccc(Cl)c2)oc1NCCc1ccccc1` was inactive: 4.94%; that for `CC(C)c1ccc(NC(=O)CSc2nc(=O)n(Cc3ccccn3)c3c2CCC3)cc1` was inactive: 7.68%.
On the same count and under the same terms, the value for `Cc1ccc(NC(=O)Cn2c(=O)n(Cc3nc(C)no3)c(=O)c3cc4c(cc32)OCO4)c(C)c1` was inactive: 10.6%.
As for `Cc1sc2ncn(CC(=O)Nc3cccc(C(F)(F)F)c3)c(=O)c2c1S(=O)(=O)N1CCN(C)CC1`, the result was inactive.
As to `COc1ccc(S(=O)(=O)Nc2ccc(-c3ccc(N4CCCC4)nn3)cc2)cc1F`, the “activity change, negative = inhibition” value was inactive: 2.32%.
The same measure, in the same setting: the value for `Cc1ccc(CCNC(=O)c2ccc3c(c2)nc2n3CCCCC2)cc1` was inactive: 4.3%; that for `CCOc1ccc(OCC(=O)NCCS(=O)(=O)N2CCN(c3ccccc3F)CC2)cc1` was inactive: -12.3%.
With `Cc1ccc(C(=O)c2c(N)c(C(=O)Nc3ccccc3Cl)c3ccccn23)cc1`, the outcome was inactive.
Regarding `COC(=O)CNC(=O)C1CCN(S(=O)(=O)c2cccc3nsnc23)CC1`, the “activity change, negative = inhibition” value was inactive: 15.3%.
The same measure, in the same setting: the value for `CC(=O)c1ccc(N2CCN(C(=O)CCC(=O)Nc3ccc4nc(N5CCCCC5)cc(C)c4c3)CC2)cc1` was inactive: 26.5%; that for `CCN(CC)c1ccc2cc(-c3nc(-c4cccs4)no3)c(=O)oc2c1` was inactive: 5.42%.
Consider `Cc1c(C(=O)N2CCC(C)CC2)c(S(=O)(=O)NCc2ccc(Cl)cc2)c(C)n1C`, for which the molecule was classed as inactive.
For the molecule `Cc1ccccc1Cc1c(C)nc2nc(SCC(=O)N(C)c3ccccc3)nn2c1C`, the “activity change, negative = inhibition” value is inactive: -5.18%.
Still for that read-out and setting: the same measure for `CN(c1ccc(F)cc1)S(=O)(=O)N1CCCC(C(=O)NCc2cccc(Br)c2)C1` (stereo not drawn): inactive: 2.88%; for `Cc1ccc(-n2c(=O)c3c(cnn3C)n(CC(=O)Nc3ccc(C)cc3C)c2=O)cc1`: inactive: 3.94%.
Consider `CC1=C(C(=O)Nc2ccc(C)cc2C)C(c2ccc([N+](=O)[O-])cc2)n2ncc(C(=O)Nc3ccc(F)cc3)c2N1` (stereo not drawn), for which the “activity change, negative = inhibition” value was inactive: 2.96%.
Still for that read-out and setting: the same measure for `COc1cc2c(Nc3ccc(Br)cc3F)ncnc2cc1OCC1CCN(C)CC1`: inactive: -10.3%; for `COc1ccccc1CNC(=O)c1c(O)nc2c(C)cccn2c1=O`: inactive: -9.03%; for `CN(C)CCNC(=O)c1ccc2c(c1)NC(=O)C(CS(=O)(=O)Cc1cccc(Br)c1)N2` (stereo not drawn): inactive: -0.0491%.
The same measure, in the same setting: the value for `Cc1ccc(S(=O)(=O)N2CCCc3cc(NS(=O)(=O)c4cccc(Cl)c4)ccc32)cc1` was inactive: -3.18%; that for `COc1ccccc1NC(=O)CSc1nnc(NC(=O)Nc2ccc(C)cc2)s1` was inactive: -24.1%.
`COc1ccc(S(=O)(=O)NCCc2csc3nc(-c4cccc(C)c4)nn23)cc1F`: the call was inactive.
For the molecule `CC1CCN(S(=O)(=O)c2ccc3c(c2)c(=O)c(C(=O)NCCc2ccccc2)cn3C)CC1`, the result was inactive.
Take `COc1ccccc1NC(=O)CCC(=O)N1CC(C)Oc2ccc(C)cc21` (stereo not drawn): the “activity change, negative = inhibition” value was inactive: 1.79%.
Turning to `CC(=O)c1ccc(NC(=O)CSc2nnc3ccc(-c4ccc(Br)cc4)nn23)cc1`, the “activity change, negative = inhibition” value is inactive: 6.74%.
The same measure, in the same setting: the same measure for `COc1ccc2c(c1)cc1c(=O)n(CC(=O)NC(C)C)nc(C)n12`: inactive: -4.37%.
As for `COc1ccccc1CNC(=O)CN(C)c1nn2c(=O)cc(C)nc2s1`, the molecule was classed as inactive.
`CCc1ccc(NC(=O)C2CCCN2S(=O)(=O)c2ccc3c(c2)n(C)c(=O)c(=O)n3C)cc1` (stereo not drawn): the “activity change, negative = inhibition” value is inactive: 8.53%.
In the case of `COc1ccc(NC(=O)CC2C(=O)N(c3cccc(OC)c3)C(=O)N2Cc2cccnc2)cc1` (stereo not drawn), the outcome was inactive.
Turning to `COc1ccc(OC)c(NC(=O)C(NS(=O)(=O)c2ccc3c(c2)CCCC(=O)N3)C(C)C)c1` (stereo not drawn), the call was inactive.
Turning to `Cc1ccc2nc(Cl)c3cc(C(=O)NC4CCCCC4)sc3c2c1`, the “activity change, negative = inhibition” value was inactive: 14.7%.
Turning to `COc1ccc(C(=O)Nc2nc3nc(C)c(Cl)c(=O)n3[nH]2)cc1`, the “activity change, negative = inhibition” value was inactive: -1.89%.
The same measure, in the same setting: the same measure for `Cc1oc(-c2ccccc2Cl)nc1CS(=O)(=O)CC(=O)NC(C)CCc1ccccc1` (stereo not drawn): inactive: 7.69%; for `CCOC(=O)c1cc(S(=O)(=O)N2CCN(c3cc(Cl)ccc3C)CC2)[nH]n1`: inactive: -0.276%; for `Cc1ccc(-c2cnc(NCc3c(F)cccc3Cl)n2C)cc1`: inactive: -3.18%.
On the same count and under the same terms, the same measure for `CN1CCc2nc3sc(C(=O)Nc4c(F)cccc4F)c(N)c3cc2C1`: inactive: -6.51%; for `CCOC(=O)c1ccc(NC(=O)c2nsc3ccccc23)cc1`: inactive: -6.88%.
The same measure, in the same setting: the same measure for `CCCN(C(=O)Cn1cnc2sc(C)c(S(=O)(=O)N3CCN(c4ncccn4)CC3)c2c1=O)c1cccc(C)c1`: inactive: 55.8%.
Take `Cc1ccccc1NC(=O)CCc1c(C)nc2c(c1C)c(=O)n(C)c(=O)n2C`: the “activity change, negative = inhibition” value was inactive: 23.2%.
Still for that read-out and setting: the value for `Cc1nc(-c2cccc(S(=O)(=O)N3CCC(C(=O)NCc4ccccc4)CC3)c2)no1` was inactive: 17.4%.
In the case of `Cc1cc(=O)n2nc(N3CCC(C(=O)NCc4ccccc4Cl)CC3)sc2n1`, the molecule was called inactive.
For the molecule `CCc1ccc(OCC(=O)Nc2c(C(=O)c3ccccc3)oc3ccccc23)cc1`, the “activity change, negative = inhibition” value was inactive: 3.86%.
